From PubChem BioAssay AID1832 (Broad Institute, 2009)
The whole screen tested about 300,000 compounds, of which about 1,100 (0.37%) were called active.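 The calls were made as follows: active = inhibition past about -25% in most replicates, and total fluorescence under double the plate's negative control median (limit read from the data); inconclusive = replicates evenly split on the limit, or fluorescence at least double controls; inactive = too little inhibition in most replicates.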 The inconclusive results got no clear call from the source.

Molecular target: Zinc finger protein mex-5 (Caenorhabditis elegans) (UniProt Q9XUB2)
Test: MEX-5 zinc finger RNA-binding disruptors – biochemical, C. elegans, fluorescence polarization, MLPCN library, primary screen (AID 1832);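 also: 0% = DMSO and -100% = 5 µM competing unlabeled TCR2 RNA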
Details: MEX-5/FITC-TCR2 RNA binding, at 10 µM, active compounds read low

Sequence of UniProt Q9XUB2 (Q9XUB2 whole entry, looked up): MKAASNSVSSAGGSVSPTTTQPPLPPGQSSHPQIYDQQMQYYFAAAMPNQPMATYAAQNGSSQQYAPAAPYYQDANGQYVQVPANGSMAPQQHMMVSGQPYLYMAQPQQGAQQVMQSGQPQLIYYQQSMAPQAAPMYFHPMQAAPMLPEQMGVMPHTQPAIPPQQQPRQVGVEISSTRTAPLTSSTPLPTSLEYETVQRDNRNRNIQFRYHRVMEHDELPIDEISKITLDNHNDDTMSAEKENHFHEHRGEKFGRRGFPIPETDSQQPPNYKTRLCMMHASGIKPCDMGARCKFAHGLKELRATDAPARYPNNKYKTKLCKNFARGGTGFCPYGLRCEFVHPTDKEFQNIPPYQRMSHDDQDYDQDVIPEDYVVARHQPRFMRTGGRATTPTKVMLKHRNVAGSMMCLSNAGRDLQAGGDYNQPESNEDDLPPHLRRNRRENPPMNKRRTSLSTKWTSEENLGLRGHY

SMILES	activity score (negative = inhibition of binding)
O=C(NN1C(=O)/C(=C/c2ccc(O)cc2)SC1=S)c1ccccc1O	inconclusive: 90.9% [fluorescent]
